Laboratory results taken from the supplement of paper PMC3334620.
In all, about 33,000 sequences were measured (“E-score (-0.5 to 0.5)”: median about -0.012, highest 2% from about 0.27 on). The list shows a part of the results.

What follows are sequences tested against T1, Vhr1 (UniProt P40522) (assay: PBM E-score (8-mer binding enrichment) (E-score (-0.5 to 0.5)); higher = stronger / more preferred TF binding; most listed sequences are background and not binding sites). Conditions: protein concentration: 200 nM; construct: GST-full length.
T1 sequence: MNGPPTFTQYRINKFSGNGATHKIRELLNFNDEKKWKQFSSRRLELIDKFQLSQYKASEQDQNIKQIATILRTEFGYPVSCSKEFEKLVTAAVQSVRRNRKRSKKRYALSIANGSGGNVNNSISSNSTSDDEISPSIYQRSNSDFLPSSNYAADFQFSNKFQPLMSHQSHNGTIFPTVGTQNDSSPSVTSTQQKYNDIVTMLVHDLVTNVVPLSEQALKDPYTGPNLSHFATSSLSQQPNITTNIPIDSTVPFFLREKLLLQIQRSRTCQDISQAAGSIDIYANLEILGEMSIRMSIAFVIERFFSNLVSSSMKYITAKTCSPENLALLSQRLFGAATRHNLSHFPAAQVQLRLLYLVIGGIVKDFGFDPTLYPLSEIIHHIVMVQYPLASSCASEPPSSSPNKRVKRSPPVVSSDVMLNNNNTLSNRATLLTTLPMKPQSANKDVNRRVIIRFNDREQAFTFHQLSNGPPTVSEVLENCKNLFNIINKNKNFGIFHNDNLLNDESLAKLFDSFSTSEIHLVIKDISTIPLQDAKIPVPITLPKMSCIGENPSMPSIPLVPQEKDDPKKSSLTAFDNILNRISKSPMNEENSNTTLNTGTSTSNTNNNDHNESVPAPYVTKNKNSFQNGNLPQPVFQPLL
How it was run: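 Yeast transcription factors carrying a GST tag, as full-length proteins or DNA-binding domains, were produced by PURExpress in vitro transcription/translation. About 100-200 nM protein was applied to universal all-10-mer Agilent arrays, double-stranded by primer extension on fresh or once-stripped slides. Bound protein was detected with fluorescent anti-GST, and scans were normalised with masliner. The Universal PBM Analysis Suite gave each ungapped eight-base word, pooled with its reverse complement, an E-score, a modified Wilcoxon-Mann-Whitney statistic.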

| Sequence | PBM E-score |
| --- | --- |
| CCTATAGA | -0.155 |
| CCCCGAAG | -0.0601 |
| ATGTTTCA | 0.0295 |
| GAAGGGAC | -0.00768 |
| AAGACCAT | -0.0248 |
| CCGGGACC | -0.0973 |
| TCGCGTCA | 0.0931 |
| CCCGGAGC | 0.12 |
| GTCCATTA | 0.0235 |
| ATGTCTGC | 0.0028 |
| AACGACCC | 0.0189 |
| GCACTATA | 0.0862 |
| CCGCCATA | 0.161 |
| CATCTCCG | 0.161 |
| CCCACTCC | 0.132 |
| AAGCCACA | -0.126 |
| ATTCTTCC | -0.265 |
| GCACACCA | 0.23 |
| AAACTGGG | -0.192 |
| CTATGCCC | 0.103 |
| ATTACGCA | 0.0913 |
| CGAGGTCC | -0.00823 |
| AAACCTCT | -0.135 |
| ATTCCATG | 0.247 |
| GACCATCC | -0.0251 |

| Sequence | PBM E-score |
| --- | --- |
| GATATACA | 0.113 |
| AGAGTCCG | -0.0962 |
| ACCTTGTC | -0.161 |
| AGAGTTCC | -0.264 |
| ACTCCGTG | 0.188 |
| CGCGATAA | -0.0316 |
| CAGATGGA | 0.0627 |
| ACTACACA | 0.327 |
| AACAGGTC | -0.124 |
| ATGAAAAC | 0.201 |
| TGACAGAA | -0.227 |
| CCGATAAA | -0.158 |
| CACAGACA | 0.0563 |
| CTCCTAAG | -0.217 |
| GGGTGATA | 0.128 |
| AGGGGCCG | -0.132 |
| ATGCATTG | 0.00189 |
| ATTTTCTC | -0.114 |
| AGTAGCCA | 0.00989 |
| AGATTCGA | -0.0165 |
| AAAGACCT | -0.0845 |
| GATTGATA | 0.167 |
| CATGCTGC | 0.132 |
| CTGATAGA | 0.0661 |
| CTCATGCA | 0.0917 |

| Sequence | PBM E-score |
| --- | --- |
| TTATTAAA | 0.0393 |
| GGCATGCC | 0.211 |
| CTTGTGAA | -0.0681 |
| AACGTCAA | -0.269 |
| AATATGGT | 0.27 |
| ATAGGACC | -0.21 |
| AAACGCCA | 0.183 |
| CGTAGTCC | -0.0429 |
| AAGGTGCA | -0.254 |
| CCCTTATA | -0.127 |
| AAGGAAAG | -0.175 |
| CTCAAGTC | -0.0821 |
| AACGGGGC | -0.0723 |
| GGCTCACC | 0.196 |
| TGCAACAA | -0.104 |
| GTATTAGA | -0.0133 |
| GCGGAGCC | 0.112 |
| TCAAACCA | 0.155 |
| ACCAGCAG | -0.0378 |
| CACTCTAC | -0.0345 |
| CGGTGGTC | 0.072 |
| AGCCAGGA | -0.00297 |
| ACATTCAT | 0.0173 |
| ATCGGGCA | -0.042 |
| CTCTATCC | -0.216 |

| Sequence | PBM E-score |
| --- | --- |
| CTTGCTCC | -0.0557 |
| GTCGACTA | 0.23 |
| GGTTCTAC | -0.184 |
| AATTCAAG | -0.17 |
| ACTTGGGA | -0.155 |
| GCTCAAAA | -0.0436 |
| ATAAGATG | 0.104 |
| ATACCACC | 0.186 |
| CATGCTAG | 0.0281 |
| CATATGTC | 0.0497 |
| ACCTACGA | 0.0559 |
| CCAGTCGC | 0.13 |
| AGTGCCGC | -0.0826 |
| CAGGCCTA | -0.016 |
| CCTCAGAA | -0.221 |
| CACTGATA | 0.0775 |
| AGAGTTCG | 0.171 |
| GTGACGTA | -0.03 |
| AGTTCCAG | -0.102 |
| CGTAAGGA | -0.205 |
| ATCGATGA | 0.159 |
| CCTCTCCC | -0.108 |
| CGGTAACG | -0.108 |
| GGCGAGCC | 0.0685 |
| CGGCCTAA | 0.0238 |

| Sequence | PBM E-score |
| --- | --- |
| CTAGCGAA | -0.174 |
| AGATGAAA | 0.015 |
| CATCGATC | 0.016 |
| CAGACGCA | 0.211 |
| GATGGGAA | -0.0859 |
| CGCCCCGA | 0.168 |
| AGGTTAAG | -0.202 |
| CCCCAACA | -0.164 |
| CCTGAAGG | -0.215 |
| GCACAAAC | 0.00169 |
| CAAGTCAA | -0.0643 |
| ACAGTCCA | 0.0672 |
| TAATGCTA | 0.0527 |
| GGTTCCTA | 0.0497 |
| ACAAGAGG | -0.0584 |
| GATGGGCA | 0.134 |
| ATCTCCAG | -0.00087 |
| CGCTTCCC | 0.11 |
| TAGTAGCA | -0.0122 |
| AAAATCTG | 0.0328 |
| AAAGCACC | -0.217 |
| ATCTGTGA | -0.00754 |
| CGTATGAG | 0.0897 |
| CAACCATG | 0.217 |
| AGCTTGAG | -0.209 |

| Sequence | PBM E-score |
| --- | --- |
| CCGCGGCA | 0.127 |
| GTGGCTCA | 0.277 |
| CCGGGGCA | -0.0498 |
| CCATTCAC | 0.0874 |
| AAAACCCT | -0.0964 |
| AGCCCCAT | 0.0303 |
| CCATGGGA | 0.0741 |
| CATGAGAA | 0.0543 |
| CCTGGGTA | 0.139 |
| CTTCCGTC | -0.104 |
| ACCGTATG | 0.153 |
| ACCAAGAT | -0.0296 |
| AGTGAAGG | 0.0621 |
| CCACCAAA | 0.0455 |
| CGTTTACA | -0.19 |
| CCATCTAG | -0.0856 |
| GCTGCTAC | -0.0326 |
| GATACTGA | 0.159 |
| CCCATTAC | 0.141 |
| GGGCCGAC | 0.0635 |
| ACTCGGCG | 0.115 |
| CTTGCTAA | -0.211 |
| CACACCGA | 0.246 |
| GGTTGACA | -0.102 |
| ACATAACT | 0.25 |

| Sequence | PBM E-score |
| --- | --- |
| CAGGTAAA | -0.0451 |
| ACCAACCA | 0.163 |
| CAGGGACC | -0.284 |
| CGTCGTTC | 0.0639 |
| CATGCGAG | 0.0796 |
| GCTGAGCC | 0.28 |
| AGCTTCAG | -0.179 |
| AAGAAAGG | -0.134 |
| AGAAAATG | -0.163 |
| ACAGGGAT | 0.188 |
| ATCGAAGC | -0.0583 |
| ATGACTAA | 0.42 |
| CCTGGGGA | -0.164 |
| CGGTGTGA | 0.265 |
| GAATGCGC | 0.00347 |
| GTAGACAC | 0.112 |
| ACCGATGC | -0.0206 |
| CAAGAGCG | 0.0553 |
| CATTCAGG | -0.044 |
| AATGTGGA | 0.0331 |
| AGAGCGGC | -0.0566 |
| ATATGATC | 0.208 |
